This is an account of results in the BET-seq Pho4 binding data (Le et al. 2018).

The list shows a part of the results. Values were computed here from the reads of four pooled replicates and scatter widely.

The experiment addresses T1, Pho4 (S. cerevisiae) (UniProt P07270).
T1 sequence: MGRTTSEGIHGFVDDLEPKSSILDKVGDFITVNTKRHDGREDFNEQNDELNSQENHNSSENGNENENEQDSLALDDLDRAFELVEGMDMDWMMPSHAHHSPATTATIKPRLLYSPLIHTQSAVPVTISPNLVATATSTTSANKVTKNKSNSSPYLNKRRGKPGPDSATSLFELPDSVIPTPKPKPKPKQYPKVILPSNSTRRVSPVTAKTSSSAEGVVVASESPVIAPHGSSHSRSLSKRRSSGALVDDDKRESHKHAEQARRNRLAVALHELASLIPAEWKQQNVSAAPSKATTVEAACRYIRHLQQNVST
The experiment in a line: relative binding free energy (BET-seq); higher = weaker binding. Particulars: reference: library average.
On to AGGAGCACGTGTGCTT, for which the “relative binding free energy” value amounted to 0.02 kcal/mol. The same measure for AGAGGCACGTGTTGTG: -0.13 kcal/mol.

For the sequence TTTCCCACGTGAGGTT, the “relative binding free energy” value came out at 0.26 kcal/mol.

Consider GATGTCACGTGTGGTT, for which the “relative binding free energy” value came to 0.17 kcal/mol. The same measure for ATCATCACGTGGTTTG: 0.09 kcal/mol; for ATGGCCACGTGCGGAG: -0.1 kcal/mol. Then TGATACACGTGGTAAT, with 0.02 kcal/mol.

As to CTGGACACGTGGGAAG, the “relative binding free energy” value is -0.03 kcal/mol.

On to GTGGGCACGTGACGGT, for which the “relative binding free energy” value worked out at 0.14 kcal/mol.

Regarding GTGTCCACGTGTGTGC, the “relative binding free energy” value was determined as 0.07 kcal/mol. Then GCAAGCACGTGAGGGT, with 0.21 kcal/mol; and GGCCTCACGTGGGGTT, with 0.16 kcal/mol.

For the sequence TTATCCACGTGTCGGT, the “relative binding free energy” value was 0.1 kcal/mol. Consider CTCGTCACGTGGTGTA, for which the “relative binding free energy” value is -0.05 kcal/mol. Then TGCAGCACGTGATAGT, with 0.12 kcal/mol; and CGAGTCACGTGAGGTA, with 0.17 kcal/mol. For AGTGTCACGTGTGAGG, the “relative binding free energy” value came to 0.1 kcal/mol.

For TGGGACACGTGGGAGG, the “relative binding free energy” value turned out to be 0 kcal/mol. Then AAAGACACGTGTTGTT, with 0.07 kcal/mol; and ACTTACACGTGTATGG, with 0.15 kcal/mol; and TCGTTCACGTGCGGTT, with 0.24 kcal/mol. Then GTGTTCACGTGTTTTG, with 0.47 kcal/mol; and GGCGTCACGTGAATTG, with 0.27 kcal/mol.

Consider TATCACACGTGAGGGT, for which the “relative binding free energy” value was 0.22 kcal/mol. As to TAGTGCACGTGCTCGG, the “relative binding free energy” value is -0.13 kcal/mol.

For AGGTGCACGTGCGTTC, the “relative binding free energy” value stood at 0.01 kcal/mol. Regarding TTTTTCACGTGATGCT, the “relative binding free energy” value was found to be 0.28 kcal/mol.

Consider TAGGACACGTGGGCAG, for which the “relative binding free energy” value is -0.13 kcal/mol. The same measure for TGCGGCACGTGTAGGG: -0.14 kcal/mol. Then CGTGACACGTGGTGAA, with 0.08 kcal/mol; and GTTAACACGTGAAAGT, with 0.47 kcal/mol; and GTGTACACGTGTAGTG, with 0.13 kcal/mol. On to GGGGACACGTGGAGTG, for which the “relative binding free energy” value came out at 0.13 kcal/mol. The same measure for GTTTTCACGTGACGTT: 0.42 kcal/mol; for TTGTCCACGTGAGAGT: 0.17 kcal/mol; for AGTCGCACGTGGGAGA: -0.17 kcal/mol.

Take TGATTCACGTGGACGT: the “relative binding free energy” value was determined as 0.26 kcal/mol. For the sequence ATTATCACGTGATATA, the “relative binding free energy” value came to 0.18 kcal/mol. Then TGTTTCACGTGATCGG, with 0.25 kcal/mol. Then AGAGACACGTGGTGTT, with 0.06 kcal/mol; and TAGTTCACGTGTTTCA, with 0.25 kcal/mol; and ATGTACACGTGAGGTG, with 0.38 kcal/mol.

Turning to TGGGACACGTGGAATG, the “relative binding free energy” value was determined as 0.06 kcal/mol.

Regarding CGTTTCACGTGGCTTT, the “relative binding free energy” value was 0.27 kcal/mol. Then TAAATCACGTGTAGGT, with 0.03 kcal/mol. With GGTCACACGTGTGCGT, the “relative binding free energy” value was found to be 0.05 kcal/mol. Then TGTAACACGTGTAAGT, with 0.05 kcal/mol; and AGTAGCACGTGTTATG, with -0.01 kcal/mol. The same measure for AGGTTCACGTGCGTTA: 0.12 kcal/mol; for TGTTGCACGTGATTTC: 0.1 kcal/mol.

Regarding AGGTGCACGTGGTATA, the “relative binding free energy” value is -0.12 kcal/mol. Then GGGGCCACGTGGATTG, with 0.09 kcal/mol. Then TGTTTCACGTGCTGAT, with 0.25 kcal/mol. The same measure for GGTGCCACGTGGGCCG: -0.3 kcal/mol; for ATGTTCACGTGTTTAT: 0.19 kcal/mol. Turning to AAAAACACGTGGTTGG, the “relative binding free energy” value was -0.07 kcal/mol. Then TATTGCACGTGCGGAA, with -0.11 kcal/mol; and CGTTACACGTGATATG, with 0.17 kcal/mol; and GTAAGCACGTGGTCTG, with -0.23 kcal/mol.

On to GTTTACACGTGGATTT, for which the “relative binding free energy” value stood at 0.31 kcal/mol. The same measure for TGGAACACGTGGTTGA: 0 kcal/mol; for ATGACCACGTGGTGGT: -0.17 kcal/mol; for GAGTCCACGTGGGGCG: -0.05 kcal/mol. In the case of TAGTTCACGTGGTTAT, the “relative binding free energy” value is 0.28 kcal/mol. The same measure for GGATGCACGTGAGCGT: 0.2 kcal/mol; for TTCGGCACGTGTAAGG: -0.02 kcal/mol; for TGTGCCACGTGGGGAT: -0.15 kcal/mol.

On to TCTCGCACGTGGGGGG, for which the “relative binding free energy” value is -0.19 kcal/mol.

As to ATTGTCACGTGTAGAC, the “relative binding free energy” value was 0.07 kcal/mol. With GGGGGCACGTGTAGGC, the “relative binding free energy” value came out at 0.02 kcal/mol.

On to GTCTTCACGTGGCGGG, for which the “relative binding free energy” value is 0.19 kcal/mol. The same measure for ATGTGCACGTGTCGAT: -0.02 kcal/mol; for GCGAACACGTGGTGGT: 0.02 kcal/mol.

For the sequence GCGTACACGTGAGGTT, the “relative binding free energy” value stood at 0.3 kcal/mol. Then GTTAGCACGTGAGAAG, with 0.22 kcal/mol. Turning to GTGCGCACGTGCAGGT, the “relative binding free energy” value was -0.23 kcal/mol.

Turning to TGCACCACGTGGGGGA, the “relative binding free energy” value is -0.22 kcal/mol. The same measure for GGTACCACGTGGAGTG: -0.05 kcal/mol; for GGAACCACGTGGGTGT: -0.16 kcal/mol. Then GGTAGCACGTGGGTTT, with -0.01 kcal/mol. For CGGGTCACGTGTAAAG, the “relative binding free energy” value came out at 0.29 kcal/mol.

TAACTCACGTGGGGGG: the “relative binding free energy” value is 0.01 kcal/mol. Then GGGGACACGTGTGTGT, with 0.14 kcal/mol. Regarding CGTAGCACGTGTTGGT, the “relative binding free energy” value is -0.11 kcal/mol. Then AGGTTCACGTGCTAGG, with 0.32 kcal/mol; and CATGTCACGTGATGGT, with 0.06 kcal/mol. Then AGTGCCACGTGTTGGG, with -0.13 kcal/mol; and CTCTGCACGTGTATGT, with 0.02 kcal/mol. The same measure for TGAGTCACGTGAGAGG: 0.37 kcal/mol.

Regarding TCATGCACGTGTGTAA, the “relative binding free energy” value is 0.04 kcal/mol. As to ATTGGCACGTGAAAGT, the “relative binding free energy” value was determined as 0.11 kcal/mol. On to TGGCACACGTGTAGTG, for which the “relative binding free energy” value turned out to be 0.13 kcal/mol.

Consider CTAATCACGTGTAGGT, for which the “relative binding free energy” value was 0.18 kcal/mol.

As for TGAGGCACGTGGATCG, the “relative binding free energy” value was -0.1 kcal/mol. The same measure for TGGGTCACGTGTAAGT: 0.13 kcal/mol; for AGGGTCACGTGGCCTT: -0.07 kcal/mol; for CTGGACACGTGAAGGG: 0.32 kcal/mol. Then TCGTGCACGTGGTTGT, with -0.1 kcal/mol.

For the sequence GGCTTCACGTGGTTTA, the “relative binding free energy” value stood at 0.3 kcal/mol. Then CGTGTCACGTGGGCGC, with -0.05 kcal/mol; and TAACGCACGTGTGGGT, with -0.19 kcal/mol. Then GAGCTCACGTGTGGGG, with 0.25 kcal/mol; and GTAGGCACGTGTTATT, with -0.02 kcal/mol.

As for TGGAGCACGTGTATTG, the “relative binding free energy” value was -0.11 kcal/mol. The same measure for CTTGGCACGTGTAGTA: -0.17 kcal/mol; for TTTTGCACGTGATATC: 0 kcal/mol.

On to TTTTCCACGTGGGTAT, for which the “relative binding free energy” value was 0.01 kcal/mol.

For GATGTCACGTGCATAG, the “relative binding free energy” value was found to be 0.26 kcal/mol. Then TTGTTCACGTGGTCAA, with 0.19 kcal/mol. Then TTTCGCACGTGTGTAT, with 0.11 kcal/mol; and TGTAGCACGTGGTACA, with -0.12 kcal/mol; and GATAACACGTGTAGGG, with 0.04 kcal/mol. Then GGTTGCACGTGGGAAC, with -0.03 kcal/mol; and TTTAGCACGTGTTGCA, with -0.02 kcal/mol; and GTTATCACGTGACGGT, with 0.23 kcal/mol.
